# Measured values from PubChem BioAssay AID894 (National Center for Advancing Translational Sciences (NCATS), 2007).
# “And” between values parts separate entries of the source, which are not always exact repeats. Equal entries are not always repeated. The campaign covered roughly 150,000 compounds. About 6,500 (4.3%) were called active. Inconclusive means that the source gave no clear call. Such entries were picked first, then a sample of the others. The call rests on the fitted dose curve; in most records, active means well fitted inhibition curve with a large enough effect (not every such curve was filed as active); inconclusive means small, poorly fitted or top-dose-only effect, or another doubt; inactive means no such curve, though single readings can be large or run the other way. A potency beside an inconclusive call is a rough fit, not a confirmed value.
# Biological target: 15-hydroxyprostaglandin dehydrogenase [NAD(+)] (Homo sapiens) (UniProt P15428)
# UniProt P15428, sequence (P15428 whole entry, looked up): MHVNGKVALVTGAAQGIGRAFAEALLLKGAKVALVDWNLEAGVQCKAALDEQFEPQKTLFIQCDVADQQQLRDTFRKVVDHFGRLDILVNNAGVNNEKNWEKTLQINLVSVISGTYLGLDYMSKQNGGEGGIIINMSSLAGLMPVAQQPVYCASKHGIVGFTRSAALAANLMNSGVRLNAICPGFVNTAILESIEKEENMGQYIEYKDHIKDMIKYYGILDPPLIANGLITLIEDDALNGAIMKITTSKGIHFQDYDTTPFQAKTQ
# Test: qHTS Assay for Inhibitors of HPGD (15-Hydroxyprostaglandin Dehydrogenase)
# Conditions: purified HPGD, NADH fluorescence kinetic, PGE2 substrate; activity change, negative = inhibition: stronger effect = lower value
# Procedure, shortened: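 NADH formation kinetics: reaction with 30 uM PGE2 and 1 mM NAD+ (final), 20 nM enzyme, Tris-HCl pH 8 with Tween 20, after 15 min compound preincubation at room temperature. Fluorescence change, last versus first of five reads.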
# On the % scale 0 is the no-effect control and ±100 the full control effect; potency means the concentration at half of the fitted maximal effect; tags describe the fitted curve by direction and shape.
Compound,Potency,"activity change, negative = inhibition"
CCN(CC)C(=O)c1cc2sc3ccccc3c2s1,active: 7.94 µM,
Cc1cc(N2CCOCC2)nc2cc(O)ccc12,"inconclusive: 31.6 µM [inhibitor, partial curve]",
CN(C)CCNC(=O)c1ccc2c(c1)N(Cc1ccc(F)cc1)CCS2,"inconclusive: 28.2 µM [inhibitor, partial curve]",
COc1cccc(C(=O)N/N=C(\CC(C)C)c2ccccc2)c1,,inactive: -6.04%
COc1ccc(/C=N/NC(=O)C(=O)N2CCCC2)cc1OC,active: 31.6 µM,
COC(=O)COc1ccc(S(=O)(=O)NCCC2=CCCCC2)cc1C,,inactive: -1.17%
Cc1cc(=O)oc2cc(OCCSCCN3CCOCC3)ccc12,"inconclusive: 35.5 µM [inhibitor, partial curve]",
CC1CCCC2(C1)NC(=S)c1c(sc3c1CCCC3)N2 (stereo unspecified),active: 4.47 µM,
O=C(CSc1nc2c([nH]c3ccccc32)c(=O)n1-c1ccccc1)N1CCOCC1,,inactive: -13.7%
CCCCCn1c(=O)[nH]c2cc(C(=O)NCCc3ccc(OC)c(OC)c3)ccc2c1=O,,inactive: -13.9%
COc1ccc(-c2coc3cc(O)ccc3c2=O)cc1,"inconclusive: 25.1 µM [inhibitor, partial curve] and inconclusive: 35.5 µM [inhibitor, single point]",
CCCC(=O)c1cc(O)c(O)cc1O,active: 6.31 µM,
COc1cc(S(=O)(=O)Nc2ccc(C)cc2)ccc1N=Cc1c(C)[nH]n(-c2ccccc2)c1=O,"inconclusive: 20 µM [inhibitor, partial curve, poor fit]",
CCN1C(=O)C(CC(=O)Nc2ccc(OC)cc2)N(Cc2ccc3c(c2)OCO3)C1=S (stereo unspecified),,inactive: -15.1%
COc1cc2c(C#N)c(N3CCOCC3)nc(N)c2c(N)n1,"inconclusive: 14.1 µM [inhibitor, partial curve]",
Cc1cccc(N=C2NC(=O)/C(=C/C=C/c3ccco3)S2)c1C,active: 7.94 µM,
CN(C)/C=C1/C=C(c2ccccc2)OC1=O,,inactive: -10.8%
O=C(CCNC(=O)c1ccccc1Cl)Nc1cccc(C(F)(F)F)c1,,inactive: -1.42%
Cc1ccc2cccc(SCC(=O)NCc3ccco3)c2n1,"inconclusive: 25.1 µM [inhibitor, partial curve]",
O=C(CSc1ccc2c(c1)OCCO2)NCC1CCCO1 (stereo unspecified),active: 15.8 µM,
CC(C)C(C)/C=C/C(C)C1CCC2C3=CC=C4CC(O)CCC4(C)C3CCC21C (stereo unspecified),,inactive: -10.9%
CC1CCC(NC(=O)c2ccc(/C=C3\Oc4ccccc4N(C)C3=O)cc2)CC1 (stereo unspecified),"inconclusive: 12.6 µM [inhibitor, partial curve]",
O=C(Sc1nnnn1C1CCCCC1)c1cccs1,active: 25.1 µM,

Compound,Potency,"activity change, negative = inhibition"
N#C/C(=C\c1ccc(-c2ccccc2)o1)C(=O)Nn1cnnc1,active: 15.8 µM,
CSc1ccc(/C=C/c2cc(=O)c3ccccc3[nH]2)cc1,"inconclusive: 3.55 µM [inhibitor, full curve]",
CCCCC(=O)Nc1cccc(C(=O)N/N=C/c2ccc(OC)cc2OC)c1,"inconclusive: 28.2 µM [inhibitor, single point]",
COC(=O)c1ccc2c(c1)N(Cc1nc(-c3cccc(C)c3)oc1C)C(=O)C1CCCN21 (stereo unspecified),"inconclusive: 28.2 µM [inhibitor, partial curve]",
CCCCC1=CC2=CC(=O)C(C)(OC(=O)CC)C(=O)C2=CN1c1ccc(OC)cc1 (stereo unspecified),,inactive: -5.54%
CC1CCN(c2ccc(C(=O)NCc3cccs3)cn2)CC1,"inconclusive: 14.1 µM [inhibitor, partial curve]",
CCCn1c(NC(=O)c2ccc(Br)cc2)nc2ccccc21,"inconclusive: 25.1 µM [inhibitor, partial curve]",
Cc1ccc(NC(=O)c2c(-c3c(F)cccc3Cl)noc2C)cc1F,"inconclusive: 25.1 µM [inhibitor, partial curve]",
CCCCn1nnnc1SCC(=O)N1CCN(C(=O)c2ccco2)CC1,,inactive: -3.01%
Cc1cccc2cc3c(N)c(C(=O)N4CCOCC4)sc3nc12,"inconclusive: 1.41 µM [inhibitor, full curve]",
CCC1(C)Cc2ccccc2-c2nc(NCCO)n(-c3ccc(C)cc3)c(=O)c21 (stereo unspecified),"inconclusive: 20 µM [inhibitor, partial curve]",
COCCCN(C(=S)Nc1cc(C)cc(C)c1)C(C)c1ccncc1 (stereo unspecified),,inactive: -6.22%
O=[N+]([O-])c1cc(-c2nnc(Nc3ccccc3)c3ccccc23)ccc1N1CCOCC1,active: 14.1 µM,
COc1c(C)cc(Br)cc1C(=O)Nc1cccc(-c2nc3ncccc3o2)c1,"inconclusive: 39.8 µM [inhibitor, single point]",
O=C(O)c1ccc(NS(=O)(=O)/C=C/c2ccccc2)cc1O,,inactive: -21.2%
COc1ccc(S(=O)(=O)N2CCC(C(=O)N3CCc4ccccc4C3)CC2)cc1Cl,"inconclusive: 28.2 µM [inhibitor, partial curve]",
Cn1c(/C(C#N)=C(\O)c2ccc(S(=O)(=O)N3CCCCC3)cc2)nc2ccccc21,"inconclusive: 35.5 µM [inhibitor, single point]",
COC(=O)c1sc2nc3c(c(-c4cccs4)c2c1N)CCCC3,"inconclusive: 15.8 µM [inhibitor, partial curve]",
Cc1csc(NC(=O)c2ccoc2C)n1,"inconclusive: 28.2 µM [inhibitor, partial curve]",
CC(C)Cc1nc2sc3c(NCc4ccco4)ncnc3c2c2c1COC(C)(C)C2,"inconclusive: 22.4 µM [inhibitor, single point]",
Cc1nn(-c2ccccc2)c2nc(N)c(C#N)c(-c3ccc(F)cc3)c12,"inconclusive: 35.5 µM [inhibitor, partial curve]",
COc1ccccc1-n1c(CNC(=O)COc2ccccc2)n[nH]c1=S,"inconclusive: 35.5 µM [inhibitor, single point]",
O=C(NCc1ccco1)c1cnn2c1NC(c1ccccc1)CC2C(F)(F)F (stereo unspecified),active: 28.2 µM,
